# Source: paper PMC4336329 (PLoS ONE, 2015)
# Out of some 310,000 compounds screened, about 2,200 (0.71%) showed an effect of 50% or more. The effect is printed as a negative number. Some of the results follow.
# Biological target: human ether-à-go-go-related gene (hERG) potassium channel (human, UniProt Q12809)
# Experiment: primary screen, population patch clamp on CHO cells stably expressing hERG
# Sequence of human ether-à-go-go-related gene (hERG) potassium channel (Q12809 whole entry, looked up): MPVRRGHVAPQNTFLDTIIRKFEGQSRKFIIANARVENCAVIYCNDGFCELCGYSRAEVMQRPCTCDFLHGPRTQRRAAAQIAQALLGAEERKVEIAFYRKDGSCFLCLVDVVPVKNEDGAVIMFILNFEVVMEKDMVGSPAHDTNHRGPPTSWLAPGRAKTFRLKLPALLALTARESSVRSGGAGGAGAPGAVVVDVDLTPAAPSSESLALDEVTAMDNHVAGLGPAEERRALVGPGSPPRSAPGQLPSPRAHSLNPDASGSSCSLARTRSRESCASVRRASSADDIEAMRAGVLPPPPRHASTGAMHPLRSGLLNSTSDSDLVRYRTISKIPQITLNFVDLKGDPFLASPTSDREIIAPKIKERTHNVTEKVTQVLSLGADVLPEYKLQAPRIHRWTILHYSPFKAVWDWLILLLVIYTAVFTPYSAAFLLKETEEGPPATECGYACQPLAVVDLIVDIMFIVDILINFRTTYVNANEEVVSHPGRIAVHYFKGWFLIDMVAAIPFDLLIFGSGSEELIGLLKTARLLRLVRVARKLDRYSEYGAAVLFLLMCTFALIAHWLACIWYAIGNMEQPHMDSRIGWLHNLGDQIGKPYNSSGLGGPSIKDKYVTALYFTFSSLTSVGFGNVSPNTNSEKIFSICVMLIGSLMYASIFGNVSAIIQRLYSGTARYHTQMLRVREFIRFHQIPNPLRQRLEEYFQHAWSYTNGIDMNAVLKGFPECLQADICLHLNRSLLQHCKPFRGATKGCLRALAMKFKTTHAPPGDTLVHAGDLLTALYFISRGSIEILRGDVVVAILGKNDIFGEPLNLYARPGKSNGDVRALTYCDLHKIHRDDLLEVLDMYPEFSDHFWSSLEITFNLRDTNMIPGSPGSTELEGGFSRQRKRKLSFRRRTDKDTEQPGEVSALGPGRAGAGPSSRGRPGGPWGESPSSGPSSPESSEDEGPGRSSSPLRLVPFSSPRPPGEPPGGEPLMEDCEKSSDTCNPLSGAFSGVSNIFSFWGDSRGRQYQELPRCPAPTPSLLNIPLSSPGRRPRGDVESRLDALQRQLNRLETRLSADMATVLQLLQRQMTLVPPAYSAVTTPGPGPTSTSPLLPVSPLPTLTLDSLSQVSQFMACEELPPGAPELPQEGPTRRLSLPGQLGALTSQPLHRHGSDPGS
row,SMILES,"hERG current change (%, negative = inhibition) at 1uM [%]"
1,COc1ccccc1-n1cnc(N)c1C(C)=O,6.83
2,CC(C)(C)C(=O)NC1(C(F)(F)F)C(=O)Nc2c1c(=O)[nH]c(=O)n2Cc1ccco1 (stereo not shown),12.7
3,COc1ccc([N+](=O)[O-])cc1/C=N/Nc1nc(N2CCCCC2)nc(N2CCCCC2)n1,9.62
4,Cc1ccc(CC2CC(=O)N(CC(=O)O)C2=O)cc1 (stereo not shown),6.06
5,CN(C(=O)COC(=O)C1(C)CC1(Cl)Cl)c1c(N)n(Cc2ccccc2)c(=O)[nH]c1=O (stereo not shown),4.93
6,Cc1ccc(C)c(C2(O)CC(C)N(C)CC2C)c1 (stereo not shown),3.84
7,CC1=NN(c2nc3ccccc3[nH]2)C(=O)C1Cc1ccccc1 (stereo not shown),10.2
8,COc1ccc2[nH]c3c(=O)n(Cc4ccc(C(=O)NCC5CCCO5)cc4)c(=S)[nH]c3c2c1 (stereo not shown),-2.58
9,O=C(CCN1C(=O)/C(=C/c2ccc(F)cc2)SC1=S)NCCc1ccc(O)cc1,18.6
10,CCOC(=O)CNC(=S)N(Cc1ccccc1)Cc1cccnc1,3.08
11,CCOC(=S)SCC(=O)Nc1nc(-c2ccc(Br)cc2)cs1,-92
12,CNS(=O)(=O)c1cccc(C(=O)OCC(=O)c2c(N)n(C)c(=O)n(C)c2=O)c1,18.3
13,CN1C(=O)C2CN(CCc3ccccc3)CNC2N(C)C1=O (stereo not shown),9.63
14,O=C(Nn1cnnc1)c1ccccc1Cl,15.9
15,CCOc1cc(N2CCOCC2)c(OCC)cc1NC(=O)COc1ncnc2ccc(Br)cc12,-0.097
16,C=CCn1c2ccccc2c2nnc(SCN3C(=O)c4ccccc4C3=O)nc21,10.4
17,Cc1ccc(S(=O)(=O)n2nc(OC(=O)c3cccs3)cc2N)cc1,7.23
18,CCN(CC)S(=O)(=O)c1c(Br)cc(C)cc1Br,0.03
19,Cc1cc(S(=O)(=O)NC2CCN(Cc3ccccc3)CC2)c(C)cc1Cl,-2.54
20,COc1ccc(F)cc1S(=O)(=O)Nc1cc2c3c(c1)CC(=O)N3CCC2,11.6
21,COc1ccccc1N=NC1=C(O)CC(C)(C)CC1=O,15
22,COc1cc(C2NC(=O)NC(C)=C2C(=O)Nc2cccc(C)c2C)cc(OC)c1OC (stereo not shown),14.4

row,SMILES,"hERG current change (%, negative = inhibition) at 1uM [%]"
1,COc1cc(NC(=O)NNC(=O)c2cc3occc3n2C)cc(OC)c1OC,20.4
2,Cc1ccc(S(=O)(=O)Nc2c(NC3CCCCC3)c3ccccc3oc2=O)cc1C,7.18
3,CCc1ccc(OCC(=O)N/N=C/c2cc([N+](=O)[O-])ccc2N2CCOCC2)cc1,9.34
4,Cc1cccc(C(=O)Nc2cccc(C(=O)N/N=C/c3ccccn3)c2)c1,20.4
5,O=C(CSc1n[nH]c(-c2ccncc2)n1)NCCc1ccccc1,17.7
6,COc1ccc(CC(=O)N/N=C/C=C/c2ccc3c(c2)OCO3)cc1OC,12.1
7,CCC(CC)NC(=O)CC(c1ccccc1)c1ccccc1,16
8,CC(C)Oc1ccc(C2CC(=O)N(c3ccccc3)C2=O)cc1 (stereo not shown),12.2
9,CC(C)c1ccc(N=C2N=C(N)c3ccccc32)cc1,-10.7
10,CCOc1ccc(C(=O)COC(=O)Cn2cnc3c2c(=O)n(C)c(=O)n3C)cc1,1.97
11,COc1cc2c(cc1OC)CN(c1nc(CN3CCCCC3)nc3sc4c(c13)CCCC4)CC2,-57.3
12,O=C(NCCN1CCN(c2cccc(Cl)c2)CC1)c1ccc(CSc2nc3ccncc3[nH]2)cc1,14.7
13,O=C(N[C@@H](Cc1ccc(Br)cc1)C(=O)O)OCC1c2ccccc2-c2ccccc21,6.58
14,CCOC(=O)c1sc2nc3c(cc2c1N)C(=O)CC(C)(C)C3,14.2
15,COc1ccc(OC)c(C2C(C#N)=C(N)Oc3cc(C)n(Cc4ccccn4)c(=O)c32)c1 (stereo not shown),-0.578
16,COC(=O)CC1SC(=O)NC1=O (stereo not shown),1.98
17,COc1ccc(S(=O)(=O)N(C)C)cc1NC(=O)COC(=O)CC1CCCC1,-49.5
18,COc1c(S(=O)(=O)N2CCCC2)ccc(Cl)c1Cl,3.45
19,FC(F)(F)c1ccc(Cl)c(-n2c(Cc3cccs3)n[nH]c2=S)c1,12.2
20,Cc1nc(Cl)sc1C(=O)Nc1cc(F)cc(F)c1,12.7
21,CCOc1ccc(C2=Nn3c(nnc3-c3cccnc3)SC2)cc1,-8.03
22,Oc1ccc(Cl)cc1C1=NNC(c2cc(Br)cc3c2OCOC3)C1 (stereo not shown),16.8

row,SMILES,"hERG current change (%, negative = inhibition) at 1uM [%]"
1,COc1cc(-c2n[nH]c(=S)n2-c2cc(C(F)(F)F)ccc2Cl)cc(OC)c1OC,2.87
2,C1CCC2(CC1)OCC1(CO2)COC2(CCCCC2)OC1,5.39
3,Cc1cccc2cc(/C=N/NC(=O)c3ccncc3)c(Cl)nc12,16.3
4,CCOc1ccc(C2C(C(=O)/C=C/c3ccco3)=C(O)C(=O)N2CCN2CCOCC2)cc1OC (stereo not shown),-0.804
5,O=c1[nH]ncn1-c1ccccc1,12.3
6,O=C(Nc1ccc(C2CCCCC2)cc1)C1CCN(c2ncccn2)CC1,16
7,C=CCN1C(=O)C(Cc2ccc(SC(F)F)cc2)SC1=Nc1ccc(C(=O)O)cc1 (stereo not shown),9.93
8,COc1cc(OC)c(/C=N/NC(N)=S)cc1Br,5.21
9,Cc1ccc(CNC(=O)c2nccnc2C(=O)O)cc1,12
10,CCOC(=O)c1cnn(-c2ccc([N+](=O)[O-])cc2)c1N,7.29
11,Cc1ccc(NC(=O)Cn2c(=O)oc3cc(S(=O)(=O)N4CCC(C)CC4)ccc32)cc1C,-4.29
12,CCCCn1c(C2CCCCC2)nc2cc3[nH]c(=O)c(C(C)C)nc3cc21,6.5
13,CN(C)/C=C(\C(=O)c1ccccc1)c1nnnn1-c1ccc(F)cc1,16.3
14,Cc1csc(N2CCCC2=O)n1,8.64
15,Cn1c(Cn2c(=O)sc3ccccc32)nnc1SCC(=O)Nc1ccc(Cl)cc1,2.68
16,CC(=O)Nc1cccc(/C(C)=N/NC(=O)c2ccc(CN3CCOCC3)cc2)c1,11.5
17,Cc1cccc(NC(=O)c2ccc(F)c(S(=O)(=O)N3CCC4(CC3)OCCO4)c2)c1,5.02
18,Cc1cccc(NC(=S)N(Cc2cccs2)Cc2cc3cc(C)cc(C)c3[nH]c2=O)c1,19.3
19,O=C(CSc1nc2ccccc2[nH]1)Nc1ccccc1N1CCOCC1,-0.458
20,COc1ccc(-c2cc(C)no2)cc1S(=O)(=O)N1CCCN(Cc2ccc(F)cc2)C1,19
21,CCOc1ccccc1CN1CCNC(=O)C1CC(=O)NCc1nccn1CC (stereo not shown),18.8
22,COc1ccccc1OC(C)C(=O)Nc1ccc(S(=O)(=O)N2CCN(C)CC2)cc1 (stereo not shown),7.42

row,SMILES,"hERG current change (%, negative = inhibition) at 1uM [%]"
1,O=[N+]([O-])c1cc(Cl)ccc1-c1nc(-c2ccccc2)no1,16.9
2,CCN1CCCC1CNC(=O)Cn1cccc1C(=O)c1ccccc1 (stereo not shown),6.82
3,Cc1cccc2c1N(CCOc1ccccc1)C(=O)C2=O,12.2
4,COC(=O)c1ccc(-n2c(CCC(=O)O)ccc2-c2ccccc2)cc1,11.6
5,Cc1ccccc1C(=O)N1CCC(C(=O)NC2CCCCCC2)CC1,23.5
6,COc1cc(NS(=O)(=O)c2ccc(NC(=O)c3ccc(F)cc3)cc2)ncn1,3.24
7,CC(C)(C)NC(=O)C(=O)NNC(=O)COc1ccc(Br)cc1,1.7
8,CCOc1ccc(S(=O)(=O)NCc2ccccc2OC)cc1,6.1
9,Cc1sc2ncnc(NCC(O)c3ccc([N+](=O)[O-])cc3)c2c1C (stereo not shown),-17.1
10,COc1ccc(S(=O)(=O)N(C)C)cc1NC(=O)CSc1nc(N)cc(N)n1,14.9
11,CCN1CCCc2cc(CN(CCN3CCOCC3)C(=S)Nc3ccc(OC)cc3)ccc21,7.88
12,C=CCNC(=O)c1cc(-c2ccncc2)nc2c(C)cc(C)cc12,-14.8
13,CCOc1cc(C(=O)N(C)c2ccccc2)cc(OCC)c1OCC,-5.38
14,COc1cc(NC(=O)Cn2cnc3sc(C)c(S(=O)(=O)N4CCOCC4)c3c2=O)cc(OC)c1OC,28.5
15,CCc1ccnc(NC(=O)Nc2ccc(OCc3ccccc3)cc2)c1,14.2
16,Cc1ccc(-n2c(C)cc(C(=O)CN3CCOCC3)c2C)cc1C,12.9
17,Cc1ccc(S(=O)(=O)Nc2ccc(N3CCOCC3)nc2)cc1,11.5
18,CC1CCc2nc(NC(=O)Nc3ccc4c(c3)OCO4)sc2C1 (stereo not shown),9.77
19,CCOc1cc(CNC(=O)CCCn2c(=O)c3cccn3c3cccnc32)cc(OCC)c1OCC,-1.07
20,CCc1cccc(NC(=O)C2CCN(S(=O)(=O)c3ccc4c(c3)CC(C)N4C(C)=O)CC2)c1 (stereo not shown),9.86
21,Cc1cc(NC(=O)CCC(=O)N(CC(=O)NC2CCCC2)c2cccc(F)c2)no1,7.59
22,O=S(=O)(c1cccs1)N1CCN(c2ccc(F)cc2)CC1,3.78
